Assay results: paper PMC12040169 (PLOS Biology, 2025)
This is one part of the list.

System: T1, C. trachomatis L2/434/Bu expressing GFP (CTL2-GFP)
T1 construct: L2/434/Bu GFP intracellular growth in HeLa cells
Set-up: species or system HeLa; C. trachomatis total inclusion area by high-content imaging, normalised to DMSO
Details: total inclusion area; 28.5 h, 10 µM; inhibitor
Outline: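 Bulk GFP and resorufin signals were read first. Wells were then fixed, stained with Hoechst and imaged to detect GFP inclusions and host nuclei. MICs followed the previously described calculation.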

SMILES	% of control remaining
O=C(COc1ccccc1)N1CCC(c2cc3cnccc3[nH]2)CC1 [CBK283449]	86.3688
CC(C)C[C@@H]1N[C@H](C(=O)NC2CCC2)Cc2cn(Cc3nccn3C)c3cccc1c23 [CBK289422]	105.081
COc1ccc(S(=O)(=O)NCc2ccc3c(c2)OCO3)cc1C(=O)O [CBK264070]	100.51
COc1ccc(Cc2nnc(SCC(=O)Nc3ccc(Br)c(C)c3)n2C)cc1 [CBK265816]	67.9725
O=C(Nc1ccccc1)O[C@@H]1CO[C@H]2[C@@H]1OC[C@@H]2Nc1nccc(-c2cccs2)n1 [CBK289513]	91.9009
C/C=C/c1ccc(OCCCn2nnc3ccccc32)c(OC)c1 [CBK269271]	112.626
CCOC(=O)c1c(NC(=O)CN2CCOCC2)sc2c1CCC2 [CBK262548]	98.385
Cc1cc(N2CCCN3CCCCCC32)nc(N)n1 (stereo not shown) [CBK169746]	56.9422
CCOc1nc(Nc2nc(-c3ccccc3)cs2)nc(OCC)n1 [CBK262442]	103.521
CCOC(=O)c1c(C(C)(C)C)oc2ccc(OCC(=O)c3ccc(OC)cc3)cc12 [CBK264950]	98.4352
CC(C)(C)n1cc2c(n1)[C@H]1CN(C(=O)CN3CCCC3=O)C[C@H]1CC2 [CBK283401]	112.675
CCOc1ccc(CC(=O)N2CCC(c3ccncc3)CC2)cc1 [CBK283596]	87.0502
O=C(O)c1ccc(NC(=O)c2ccccc2F)c(NC(=O)c2ccccc2F)c1 [CBK275363]	98.8663
CCc1nc2ccc(C(=O)Nc3ccc(C(N)=O)cc3)cn2c1N(CC)Cc1cccc(Br)c1 [CBK146960]	103.06
O=[N+]([O-])c1ccccc1S(=O)(=O)N1CCN(S(=O)(=O)c2ccc(Cl)cc2)CC1 [CBK264311]	111.464
Cn1cc(C(=O)NC2CCN(C(=O)c3ccc4c(c3)CCC4)CC2)cn1 [CBK305664]	43.1125
CCOc1cc(NC2CCN(C(=O)C(C)CC3CCCC3)CC2)ncn1 (stereo not shown) [CBK306176]	22.3513
Cc1ccc(S(=O)(=O)NC2c3cccc4cccc(c34)C2Sc2nnc(N)[nH]2)cc1 (stereo not shown) [CBK265875]	104.766
CC(=O)NC1(c2ccccc2)CCN(Cc2ccnn2C)CC1 [CBK281805]	103.751
O=C(O)[C@@H]1CCN(Cc2ccccc2)C[C@H]1c1ccccc1 [CBK286840]	113.644
COCCCn1c(C)c(C)n2c3c(=O)n(CCN4CCCCC4)c(=O)n(C)c3nc12 [CBK269762]	83.4279
O=[N+]([O-])c1cc(-c2nc(-c3cccs3)c(-c3cccs3)[nH]2)ccc1Br [CBK265009]	112.867
COc1cccc(COc2cncc(N3CCNCC3)n2)c1OC [CBK200003]	44.7662
O=C(O)c1ccc(NC(=O)c2cccc(NC(=O)c3cccc4ccccc34)c2)cc1 [CBK299823]	65.1319
O=c1[nH]c2ncc(-c3cccc(CO)c3)nc2n1CC1CC1 [CBK065088]	86.3295

SMILES	% of control remaining
Nc1ncc(-c2occc2C=O)nc1NC1CCOCC1 [CBK063789]	113.321
Cn1cc(N2CCC(NC(=O)c3ccc(C#N)cc3)C2=O)cn1 (stereo not shown) [CBK305182]	38.752
CS(=O)(=O)Nc1nccnc1N1CCN(c2ccccc2)CC1 [CBK048688]	79.8276
Cc1noc(NS(=O)(=O)c2ccc(NC(=O)COc3ccccc3Br)cc2)c1C [CBK263918]	39.3227
N#CC(c1ccc(O)cc1)N1CCOCC1 (stereo not shown) [CBK261659]	103.824
COc1ccc(NC2c3cccc4cccc(c34)C2NS(=O)(=O)c2ccccc2)cc1 (stereo not shown) [CBK264075]	80.189
Fc1ccc(CN2CCC(c3nnc4n3CCCCC4)CC2)cc1F [CBK283356]	94.9362
CC(=O)C(/N=N\c1ccc(S(=O)(=O)Nc2nccs2)cc1)C(=O)Nc1ccc(Cl)cc1 (stereo not shown) [CBK015826]	100.423
CCNC(=O)N[C@H]1CO[C@H]2[C@@H]1OC[C@@H]2n1nnnc1Oc1ccccc1 [CBK289484]	87.6859
O=C(CO)N1CC2(CCN(CCO)CC2)c2ccccc21 [CBK131507]	96.1471
Cc1cc(CC(=O)N2CCN(C(=O)c3ccco3)CC2)on1 [CBK144465]	124.597
Cc1ccc(NC(=O)/C=C/c2ccc3c(c2)OCO3)c(NC(=O)/C=C/c2ccc3c(c2)OCO3)c1 [CBK265423]	98.3977
CC(C)(C)c1nnc(NC(=O)c2ccc(F)cc2)s1 [CBK086855]	70.6258
Cc1ccc(-n2c(SCC(=O)N3CCc4ccccc43)nnc2-c2ccccc2O)c(C)c1 [CBK268793]	133.995
COC(=O)[C@@H]1CN(C(=O)c2cccs2)CCN1C(=O)c1cccnc1 [CBK289610]	113.12
COCCNc1cc(-c2cccc3oc4ccccc4c23)ncn1 [CBK090794]	149.179
Cc1nc(CN2CCN(C(=O)NCCc3cnn(C)c3)CC2)cs1 [CBK305614]	64.0197
CC(Sc1nnc(-c2ccc(Cl)cc2)n1CC(=O)O)C(=O)Nc1ccnn1C(C)C (stereo not shown) [CBK296970]	74.4199
CC(=O)OC(c1ccccc1)c1nc2ccccc2[nH]1 (stereo not shown) [CBK110141]	89.3954
CC(C)CNC(=O)c1cccc(NC(=O)N2CCC2c2cccs2)c1 (stereo not shown) [CBK306927]	81.2267
Cc1nonc1CC(=O)N1CCC[C@@H]2[C@H]1C/C=C/Cc1ccccc1OCC(=O)N2C [CBK292062]	98.6923
COc1ccc(C(C)N(CCN2CCOCC2)C(=O)NCc2cccnc2)cc1OC (stereo not shown) [CBK158986]	82.798
Cc1ccc(C(F)(F)F)cc1NS(=O)(=O)c1cc(OC2CCNCC2)c2occc2c1 [CBK082763C]	65.9566
O=C(c1ccccc1)N1CCC(c2cccc(Cc3ccccc3Cl)n2)CC1 [CBK286085]	105.118
